This is one part of the list. Antibody binding of pooled human sera (four to six donors per pool; dilution not stated) to peptides of the Trypanosoma cruzi antigen TSSA on microarrays. Quantile-normalised fluorescence in arbitrary units, mean of duplicate arrays; higher = more binding. No active / inactive call. The uninfected pools are read here as the healthy donors of the same country. The strongest signals lie near the top of the scale (about 60,000).

The subject of the experiment is pooled sera of uninfected people, Colombia. Briefly: antibody binding signal (normalised fluorescence) (arbitrary fluorescence units); higher = stronger serum antibody binding to peptide. As for the experimental part:
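Microarray of 15-residue peptides over residues 30-55 of Trypanosoma cruzi TSSAII, each with 1 to 10 substitutions at naturally variable positions, probed with one serum pool per country.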
As to GTENKPAAGEAPSPP, the antibody binding signal turned out to be 102.
As for PSGKEKKPATGEAPS, the antibody binding signal is 268.
The value for TDNKTAAGGAPSPPG was 215; that for PSGKDNKPAAGETPS was 441; that for KPAAGEAPSQPGASS was 105.
The value for GKENKAAAGETPSPS was 122; that for KDKKTAAGGTPSPPG was 143.
The sequence TPPSGTDKKPATGGT gave an antibody binding signal of 340.
The value for PPSGKDNKAATGEAP was 276.
The value for PSGTEKKAATGGAPS was 915; that for KEKKTATGGAPSPSG was 79.3.
In turn, TDKKPAAGGTPSPSG showed an antibody binding signal of 251.
The value for PPSGKDNKPATGEAP was 302.
In the case of EKKAAAGGAPSQPGA it was 174; in that of TDNKTAAGETPSQSG, 156; in that of KENKTATGGAPSQSG, 100.
The value for GKEKKAATGETPSQP was 196; that for SGKDNKPAAGGAPSQ was 700.
Sequence ISTPPSGKENKPAAG registered an antibody binding signal of 629.
The value for NKPAAGEAPSQSGAS was 278; that for TDKKAATGEAPSQPG was 413.
The value for KDKKTATGETPSQPG was 135; that for GKDNKTATGEAPSPS was 377; that for SGTENKAAAGGTPSP was 538.
For GKENKAAAGEAPSQP, the antibody binding signal worked out at 126.
GTENKPATGGAPSPS gave an antibody binding signal of 192.
Regarding PPSGTEKKAAAGGAP, the antibody binding signal is 279.
The value for TDNKAAAGGTPSPSG was 552; that for DNKTAAGGAPSPPGA was 298; that for TSSTPPSGKEKKAAA was 252.
GKDKKPAAGETPSQS showed an antibody binding signal of 151.
The value for PSGKDNKTATGEAPS was 274.
Regarding PPSGTDKKAATGEAP, the antibody binding signal worked out at 776.
In the case of KDKKPATGGTPSPSG, the antibody binding signal was found to be 151.
In the case of SGTENKAATGGAPSP it was 269.
Sequence TPPSGKDKKPAAGGT returned an antibody binding signal of 234.
In the case of PPSGTDNKTAAGGAP it was 732; in that of GTDKKPATGETPSPP, 261.
In the case of KEKKAATGETPSQSG it was 287; in that of SGTEKKPATGEAPSQ, 244.

These data come from the supplement of paper PMC10441789.
